Measured values published in PubChem BioAssay AID445 (National Center for Advancing Translational Sciences (NCATS), 2006).
About 40 (0.04%) of roughly 110,000 compounds were called active. The inconclusive results got no clear call from the source; some entries with a clear call stand among them for comparison. Calls follow the shape of the dose curve; as a rule, active = well fitted curve in the direction sought with a large enough effect in the signal ratio (not every such curve was filed as active); inconclusive = small, poorly fitted or top-dose-only effect, or a change in a side signal; inactive = flat fitted curve, though single readings scatter; the % refers to the signal ratio. A potency beside an inconclusive call is a rough fit, not a confirmed value.

Assay: IkB Signaling;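 as to IkBa stabilization activation: 0% = basal untreated cells and 100% = reference inhibitor full response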
Settings: ABC-DLBCL IkBa-CBG/CBR dual luciferase ratio (green luciferase fused to IkBa over red control in OCI-Ly3 lymphoma cells), 4 h; IkBa stabilization activation: at 57.1 µM (top of the series), scaled: untreated 0%, proteasome inhibitor 100% unless noted
How it was run: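 In this assay, an IκBα–CBG68 fusion accumulates when IKK-driven degradation is blocked; native CBR normalizes for cell number. OCI-Ly3 cells were treated 4 h with compound and doxycycline, then green and red light read after Chroma-Glo addition.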
Potency is read from the fitted curve at half-maximal effect.

SMILES	IkBa stabilization activation	Potency
COc1cccc(NC(=O)CSc2nc(C)c(Cc3ccccc3)c(=O)[nH]2)c1	inconclusive: 2.17% [signal inhibitor]	–
Cc1nc2c(c(=O)n1Cc1ccco1)c1nc3ccccc3nc1n2Cc1ccccc1	–	inconclusive: 20 µM [signal inhibitor, partial curve]
Cc1cccc(-c2nc3c4c(-c5ccccc5)c(-c5ccccc5)oc4ncn3n2)c1	inconclusive: 4.73% [signal inhibitor]	–
CCc1nnc2n1N=C(c1ccc(-c3ccc(Cl)cc3Cl)o1)CS2	inactive	–
CC(C)CN(C(=O)COC(=O)c1ccc2c(c1)NC(=O)CS2)C1CCS(=O)(=O)C1 (stereo not drawn)	inconclusive: 1.74% [signal inhibitor]	–
CC(=O)N1c2ccc(S(=O)(=O)N3CCC(C(=O)Nc4cccc(Cl)c4C)CC3)cc2CC1C (stereo not drawn)	inconclusive: 4.12% [signal inhibitor]	–
COCCn1c(=O)c(-c2cc(F)cc(F)c2)nc2cnc(Oc3ccc(OC)cc3)nc21	inactive: 7.75% [at 11.4 µM, scaled: untreated 0%, proteasome inhibitor 100%]	–
COCCNC(=O)CN1CCC(n2c(C)nc3cc(C(F)(F)F)ccc32)CC1	inactive	–
CCOC(=O)C1CCN(S(=O)(=O)c2cccc(-c3cn4cccc(C)c4n3)c2)CC1	inconclusive: 6.15% [signal inhibitor]	–
CN(C)c1ccc(CNC(=O)Cc2ccc(NC(=O)N3CCCCc4ccccc43)cc2)cc1	inconclusive: -0.346% [signal inhibitor]	–
CCOC(=O)c1ccc(NC(=O)CCCc2nc(-c3cc(OC)c(OC)c(OC)c3)no2)cc1	inconclusive: -0.961% [signal inhibitor]	–
Cc1nc(NCc2ccco2)c(C#N)c2c1COC(C)(C)C2	inactive	–
CCOc1ccc(S(=O)(=O)N(CC(=O)Nc2ccc(OC)cc2OC)c2ccccc2)cc1	inconclusive: 7.51% [signal inhibitor]	–
O=C(/C=C/N1CCOCC1)c1cc2ccccc2o1	inactive	–
Cc1nn(CCCC(=O)NCc2ccccc2Br)c(=O)c2c1sc1ccccc12	inconclusive: 7.59% [signal inhibitor]	–
CC(C)C(c1nnnn1Cc1ccccc1)N(Cc1ccco1)Cc1cccs1 (stereo not drawn)	inconclusive: 3.54% [signal inhibitor]	–
O=C(NCc1ccccc1F)C1CCCN(C(=O)N2CCOc3ccccc32)C1 (stereo not drawn)	inconclusive: 2.19% [signal inhibitor]	–
O=C(Nc1cccc(Cl)c1)N1CCN(Cc2ccccc2)CC1	inactive	–
Cc1nc2cc(-c3ccccc3)ccc2o1	inactive	–
O=C(CSc1nnc(CN2CCOCC2)n1-c1ccc(Cl)cc1)Nc1cc(Cl)ccc1O	inconclusive: 3.31% [signal inhibitor]	–
Cc1ccc(S(=O)(=O)NC(=O)Nc2ncn[nH]2)cc1	inactive: 0.214% [at 11.4 µM, scaled: untreated 0%, proteasome inhibitor 100%]	–
CCOc1ccc(C(=O)Nc2cccc(C(=O)OCc3cc(=O)n4cc(C)sc4n3)c2)cc1	inconclusive: 9.44% [signal inhibitor]	–
Clc1ccc(-c2nnc(N3CCCC3)nn2)cc1	inactive	–

SMILES	IkBa stabilization activation	Potency
COc1ccc(S(=O)(=O)N(CC(=O)N2CCc3ccccc3C2)c2ccc(C)cc2)cc1	inconclusive: 6.05% [signal inhibitor]	–
N#CCSc1nnc2ccc3ccccc3n12	inactive	–
COc1ccc(Br)cc1CNC(=O)c1cc(=O)[nH]c2ccc(S(=O)(=O)N3CCCCC3C)cc12 (stereo not drawn)	inconclusive: 0.245% [signal inhibitor]	–
CCn1cc(C(=O)NCCc2ccccc2)c(=O)c2cc(S(=O)(=O)N3CCCCCC3)ccc21	inconclusive: -1.98% [signal inhibitor]	–
Cc1nn(C(C)C(=O)N2CCN(c3ccc(F)cc3)CC2)c(=O)c2c1sc1ccccc12 (stereo not drawn)	inconclusive: 0.276% [signal inhibitor]	–
CN(C)c1ccc(-c2ccc3ncnc(NCc4ccccc4)c3c2)cc1	inactive: 1.37% [at 11.4 µM, scaled: untreated 0%, proteasome inhibitor 100%]	–
Nc1c(C(=O)NCCc2ccccc2)nnn1CC(=O)Nc1ccc(Cl)cc1	inconclusive: 0.404% [signal inhibitor]	–
C=Cc1ccc(Cn2c(C(=O)O)c(CNCCc3ccccc3)c3ccc(C)cc32)cc1	inconclusive: 0.222% [signal inhibitor]	–
CCCn1c(CCC(=O)Nc2cccc(C)c2C)nc2cccnc21	inconclusive: 3.74% [signal inhibitor]	–
CC(C)NS(=O)(=O)c1ccc(OCC(=O)Nc2ccc3c(c2)OCO3)c(Cl)c1	inconclusive: 1.49% [signal inhibitor]	–
Cc1ccccc1OCCCCn1c(C2CC(=O)N(c3ccccc3Cl)C2)nc2ccccc21 (stereo not drawn)	inconclusive: -0.474% [signal inhibitor]	–
COc1ccc(NC(=O)c2c(OC)cccc2OC)c(OC)c1	inactive	–
CCOC(=O)C1CCCN(c2c(C(=O)c3ccc(C)cc3)cnc3ccc(OCC)cc23)C1 (stereo not drawn)	inconclusive: 5.97% [signal inhibitor]	–
O=C(Nc1nc(-c2cccs2)cs1)c1ccc(Cl)s1	inconclusive: -7.63% [signal inhibitor]	–
O=C1CN(C(=O)COC(=O)CCC(=O)c2ccc3c(c2)OCCO3)c2ccccc2N1	inactive	–
CC(C)[C@@H](C(=O)O)N1C(=O)c2ccccc2C1=O	inactive: -1% [at 11.4 µM, scaled: untreated 0%, proteasome inhibitor 100%]	–
Cc1ccc2nc(NC(=O)c3ccc(S(=O)(=O)N4CCCc5ccccc54)cc3)sc2c1	inconclusive: 0.416% [signal inhibitor]	–
O=C(C1CCCCC1)N(Cc1cccnc1)c1nc2c(F)cc(F)cc2s1	–	inconclusive: 3.16 µM [signal inhibitor]
COc1ccc(OC)c(NC(=O)c2c(NCc3ccc(OC)c(OC)c3)sc3c2CCC(C)C3)c1 (stereo not drawn)	inconclusive: -1.83% [signal inhibitor]	–
CCOC(=O)c1ccccc1NC(=O)CSc1nc2ccccc2o1	inactive	–
Nc1c(C(=O)Nc2cccc(F)c2)sc2nc(-c3cccs3)ccc12	–	inconclusive: 12.6 µM [signal inhibitor]
COc1ccccc1-c1cc(C(=O)Nc2c(C)n(C)n(-c3ccccc3)c2=O)no1	–	inconclusive: 2.51 µM [signal inhibitor, full curve]
Cn1c(/C=N/c2nc3ccccc3[nH]2)nc2ccccc21	–	inconclusive: 25.1 µM [signal inhibitor, partial curve]

SMILES	IkBa stabilization activation	Potency
O=C(CCCSc1nc2ccccc2s1)NC1=NCCS1	inconclusive: -4.39% [signal inhibitor]	–
Cc1cc(C)nc(NS(=O)(=O)c2ccc(NC(=O)c3cc(=O)c4ccc(C)c(C)c4o3)cc2)n1	inconclusive: -2.08% [signal inhibitor]	–
Cc1ccccc1-c1nc2scc(CCNC(=O)C(=O)Nc3ccc(F)cc3F)n2n1	inconclusive: 6.04% [signal inhibitor]	–
Cc1oc2ccc(O)c(CN3CCCCC3C)c2c1C(=O)Nc1ccccc1 (stereo not drawn)	inconclusive: -0.325% [signal inhibitor]	–
COC(=O)CCC(=O)Nc1sc2c(c1C#N)CCCC2	inactive	–
Cc1cc(NCCCn2ccnc2)n2nc(-c3ccc(F)cc3)cc2n1	inactive	–
COc1ccc(C(CNC(=O)Cc2ccc(Cl)cc2)N2CCOCC2)cc1 (stereo not drawn)	inactive	–
O=C(CSc1nc(=O)n(CCN2CCOCC2)c2c1CCC2)Nc1cccc(Cl)c1	inactive	–
O=C(CC(c1cccs1)N1Cc2ccccc2C1=O)Nc1ccc(F)cc1F (stereo not drawn)	inconclusive: 1.23% [signal inhibitor]	–
Cc1cccc(CC(=O)NC2CC(=O)N(c3ccccc3)C2)c1 (stereo not drawn)	inconclusive: 0.903% [signal inhibitor]	–
Cc1ccc(O)c(NC(=O)c2cc(-c3ccc(F)cc3)on2)c1	–	inconclusive: 7.94 µM [signal inhibitor, partial curve]
Cc1cc2c(cc3c(SCc4cccc(F)c4)nnc(C)n32)o1	inactive	–
Cc1ccccc1CSCCNC(=O)C1CCN(S(=O)(=O)Cc2ccccc2)CC1	inconclusive: 0.85% [signal inhibitor]	–
O=c1c2c3c(sc2n(Cc2ccccc2F)c(=O)n1-c1ccc(Cl)cc1)CCCC3	inactive	–
COc1ccc(NC(=O)CCc2nc3cccnc3n2-c2ccccc2)cc1Cl	inconclusive: 0.0968% [signal inhibitor]	–
CCNc1ncc2nc(-c3cccs3)c(=O)n(-c3ccccc3)c2n1	inactive: -2.35% [at 11.4 µM, scaled: untreated 0%, proteasome inhibitor 100%]	–
COc1ccc(CCNC(=O)c2cc3c(-c4ccc(OC)c(OC)c4)nn(C)c3s2)cc1OC	inconclusive: 0.0895% [signal inhibitor]	–
Cc1ccc(Cn2c(CO)cnc2SCc2cccc(F)c2)cc1	inconclusive: 0.403% [signal inhibitor]	–
Cc1ccc(Cl)cc1N1CCN(C(=O)c2ccc(CS(=O)(=O)c3ccc(Br)cc3)o2)CC1	inconclusive: 3.21% [signal inhibitor]	–
Cc1c(C)n(Cc2ccccc2)c2ncnc(N)c12	inconclusive: 1.77% [signal inhibitor]	–
Cc1ccc(N(CC(=O)Nc2ccc(F)cc2F)S(=O)(=O)c2cccs2)cc1	inconclusive: 16% [signal inhibitor]	–
CCC(=O)C1=C(c2ccccc2)N(C(=O)CC)n2c(nnc2-c2ccccc2)S1	inconclusive: 5.56% [signal inhibitor]	–
